± gives the standard deviation of the averaged measurements. The list shows a part of the results.
test system: PfAP2-G AP2 domain (GST-tagged); test: gcPBM binding intensity (ln(normalized median fluorescence intensity)); higher = stronger DNA binding
In short: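 The binding buffer was 1× PBS containing 1% milk, 0.2 mg/ml BSA, 0.5% salmon testes DNA and 0.03% Triton X-100. In it, GST-tagged P. falciparum DNA-binding domains expressed in E. coli were applied for 1 h to an Agilent 4 × 180k array of primer-extended double-stranded 36-bp intergenic genomic probes plus negative controls. Binding intensity, read with Alexa488 anti-GST antibody and a 488 nm scan, is the highest Masliner-normalised natural-log median intensity across replicate spots of either probe orientation.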

Sequence	gcPBM binding intensity (ln)
ATGATACATAAAGAATATAAAACATGAAATATAATA [CACACA_negctrl_site1461]	9.87 ± 0.12
ATTTATTGACTATTTACACACATATTTATTAGAATA [CACACA_site6863]	10.1 ± 0.19
GGGAGGATAGTTCACAGTACCCAGTAACTCTACGGA [XGTACX_site2558]	10.8 ± 0.52
TTTTTTACGCATAACTTAATATGAGAATCCCTTTCT [GTGCAC_negctrl_site522]	10.2 ± 0.2
CCACACTTAAAATACACACACACCAAAAAAAAAAAA [CACACA_site2709]	10.1 ± 0.52
AACTGAGAAACCGAAGTGCAATATGTATATATACAT	10.03 ± 0.028
ATATATAATATATATGCATGTGACATTAATAATATA [TGCATGCA_site880]	9.935 ± 0.035
ATATGAAAGGTGTACACACGCACACCCAAAAAAATA [CACACA_site2911]	11.7 ± 0.95
TAATTTAAAAATATAAATGTTTCACTTATATATTTT [TGCATGCA_negctrl_site399]	9.41 ± 0.27
ATTTTTATTTTCTTTACACACCACATAATTTTTTTT [CACACA_site6092]	10.3 ± 0.25
AAAAAAAAAAAAAAAACACACATTTGAAAGAAAGAA [CACACA_site3339]	10.3 ± 0.18
TACACCCATGGACACACACACACGCATAAAAAAAAA [CACACA_site4933]	11.1 ± 0.81
GCCACACTTTTCTGCACACATAAAAAATATATAAAT [CACACA_site578]	10.6 ± 0.57
CATAAGAGGAACTTTTGTACTTATATGTATATAGTA [XGTACX_site5836]	11 ± 0.52
TATATCGTTATATAAACACACAATATGTTTTTTATA [CACACA_site7730]	9.71 ± 0.15
CTTTTATGAAACAGTGCACACATAAAAATATATACA [CACACA_site8981]	10.5 ± 0.35
ATGAACATTTATAAATGTACTCACATATATATATTT [XGTACX_site6692]	11.1 ± 0.73
TTTATATTTATCCAAAGTACTTTTTAAAAACATACC [XGTACX_site4518]	11.1 ± 0.79
AAGTTTTTTATTTTTTGTACATAAAAAATAATAATT [XGTACX_site1755]	11 ± 0.67
TATGTATTTATATATACACACTTCTGTGATACGAAA [CACACA_site5128]	10 ± 0.2
AGATATATATTTTATTGTACACATTAAAGTATAAAA [XGTACX_site7194]	11.5 ± 1.1
AACATTTTTAGATTATATTATTAAATAAGTAACTGC [XGTACX_negctrl_site326]	9.88 ± 0.11

Sequence	gcPBM binding intensity (ln)
AACACTTTAATTTATGCACACATATGGAACAACAGC [CACACA_site8241]	10.4 ± 0.26
TTTTTTTTAATATTTTACATTGTCTGTTAACAAATA [CACACA_negctrl_site599]	9.905 ± 0.021
TTTTTGTTTTTTTTTTGTACATATATATAAAAAATA [XGTACX_site1214]	11.1 ± 0.81
ACACATACATACATATGTACATATATACATATATAC [XGTACX_site5559]	11.1 ± 0.44
TATATATATATGCTACGTACATATATATTATATATA [XGTACX_site7894]	11.2 ± 0.55
TATCATAATAGACACAGTACATATATGTCTTAAATT [XGTACX_site8775]	10.6 ± 0.38
GTATTCTTCTCTCCGTGTACATATATATGTATATAT [XGTACX_site803]	11.3 ± 0.61
AGTAAACGATGATGTTGTACAAAAAGGATAATTTAA [XGTACX_site6698]	11.1 ± 0.52
TTTTTATTTTTTATGTAATTTAAATAATTATTCAAA [CACACA_negctrl_site1549]	9.89 ± 0.32
CAATACTATTATTATAGTACGTATAAAATTATATAT [XGTACX_site4950]	11.1 ± 0.68
TACAAAAAAGAAGATATTCAAACAAAAACAAAAAAA [CACACA_negctrl_site1126]	9.715 ± 0.007
ATAGTTTATACAAATAGTACGCACAAAAAAAAATAA [XGTACX_site6727]	11.5 ± 0.91
TATATATTATATATATGTACATATTTATTTTATTTT [XGTACX_site6989]	11.2 ± 0.69
AATACCGGAAAGCAAACACACATTTGAAAACCATAA [CACACA_site7761]	9.92 ± 0.042
AAAAAATTTCAAATGACATAATGTAATTTCCCTTTT [GTGCAC_negctrl_site673]	9.61 ± 0.18
TTTATCAAAATAAATGCACACAAATTGCACATATCT [CACACA_site8281]	10.1 ± 0.13
AAACCGTGGGAGCACACACACACACGCGCACATATA [CACACA_site6288]	10.7 ± 0.38
TGTTTCTAAAAAAAAGGTACACATATATATAATATA [XGTACX_site3217]	11.4 ± 0.93
GTAACCCACCAAAATGCACACATTAAAAAAAAAAAA [CACACA_site1046]	10.2 ± 0.48
TATATATAAACAAAATGTACATATTTGAGATACCCT [XGTACX_site2195]	11.2 ± 0.68
TATCTGTATTTATTCACACATATAAAATATAATTAA [CACACA_site5560]	9.96 ± 0.25
ATGAATAAATAGGTCACACACAAATATTTATAAATA [CACACA_site7186]	10.5 ± 0.42

Sequence	gcPBM binding intensity (ln)
TATATACAATATAGGTGTACATTTTTTTATCTATTT [XGTACX_site8431]	11.3 ± 0.69
TCTGGCATATAATATTGTACACATATATATATATAT [XGTACX_site8182]	11.3 ± 0.67
ACATGAATTTATATGTGTACTAACTATATTCTTAAA [XGTACX_site5966]	11.5 ± 1.1
TATATGTTAATTTTTTTTTTTTTTTTTTTTTTTATA [CACACA_negctrl_site62]	9.34 ± 0.13
AAAGTACAAGTATAATCACACGTGTCTATTATATAC [CACACA_site4507]	10.8 ± 0.58
AACGGGGGTAGTTTTATGCACACGTTTATTAATGCT [CACACA_site3173]	10.7 ± 0.33
GATATGAATATAGGTTGTACTATATATAAAGTATGT [XGTACX_site1877]	11.1 ± 0.84
CTTTCAATTTTTTTCTGTACCAATAAAAAATATAAA [XGTACX_site2120]	11.1 ± 0.81
TTGAGCATAAAATTTGGAAACCTCAATCGGACAAAA [GTGCAC_negctrl_site84]	10.9 ± 0.59
AATATCTTAGTGGATACACACATATAAATGTGTATT [CACACA_site6367]	10.4 ± 0.3
ATAATGTTTTATAATACACACATTATATATATAAAT [CACACA_site6101]	10.03 ± 0.085
ATATTTATGTAAAAAAGTACATACAATTATATATGT [XGTACX_site3750]	11.5 ± 1.1
GATTACAAAAAAAATACACACAAAAAAAAAAAGGAA [CACACA_site2096]	9.9 ± 0.23
TATATATAATATTGCACACAAAATTAAAAGTAAATA [CACACA_site19]	10.1 ± 0.37
CATAAATGTCTCACATGTACATATGCATTTTTAAAA [XGTACX_site3194]	11.2 ± 0.79
CAACTCTTATTTAATTATATGAATTAATTTATATGA [CACACA_negctrl_site200]	9.91 ± 0.29
TGCATAAATTTATGCACACATAAAAAAAAAAAAAAA [CACACA_site2923]	10 ± 0.58
ATTATGTTAATAATATGTACATATATCTACATATAT [XGTACX_site7978]	11.2 ± 0.64
TTAAATACTAAAAAGTGTACACATACATAAAAAATT [XGTACX_site6261]	11.7 ± 0.92
GAGTATATTTATATTGCACACAATTTTTTTATTTTT [CACACA_site2644]	10.1 ± 0.13
ATTATTTTGTTTATTACATGCAGGTGTATATTACAG [TGCATGCA_site723]	10.1 ± 0.23
TTATTAACCTAAATTAGTACATATAATATAAAAAAT [XGTACX_site8661]	11.2 ± 0.66

Sequence	gcPBM binding intensity (ln)
AGCTATGTATTCTACACACACATACACCCATATATA [CACACA_site5827]	10.2 ± 0.2
TAATAAATAAATGACACACACACACCCAAAAAAAAA [CACACA_site2623]	10.4 ± 0.28
ATACTAAGGAGAAAAGAAAAGTGAATTTATTCTATA [CACACA_negctrl_site1792]	9.52 ± 0.25
AAATTTATGAACCTAGTGCAGAAATTAAAAAGATGA [GTGCAC_site9396]	10.1 ± 0.11
AAAATATTATCTAATTGTACTTATATAACTATATAT [XGTACX_site5699]	11.2 ± 0.84
TTGAAATGCATGAACACACACAGCTATAAATGCATA [CACACA_site968]	9.95 ± 0.17
AATATAAGGATATATACACACATAAATACATACATA [CACACA_site7859]	10.02 ± 0.099
TATTTTTTTAGATATACATGCAAAAACAGAAGAAAT [TGCATGCA_site283]	10.3 ± 0.4
TCAACATTCATTGGAAGTACTCACTCCCATATAATA [XGTACX_site5211]	11.2 ± 0.8
ATTCAATATTTATACACACACACTTTTAATAATTAA [CACACA_site7725]	10.2 ± 0.16
ATATATATAATAAATACACACATTTATATAGATAAA [CACACA_site3254]	9.925 ± 0.092
TCATTCAGTTTTATCACACACAATCAAACATATATA [CACACA_site2742]	10.05 ± 0.014
ATAAAAAGAAATCCAATACACACCTTCAAAATGGGT [CACACA_site1622]	10.11 ± 0.042
TGAACTTTAAACCCTGAACACACACTAATACACCCA [CACACA_site7970]	10.7 ± 0.54
AATATGTCATATATGTGTACATATGCACAGATATTA [XGTACX_site951]	11.4 ± 0.8
AATTGCTAATGGTACGAACACACATATAAAGATGCA [CACACA_site8634]	10.6 ± 0.33
TATTTATGCACGCGTGCACACACATATGAAAAAAGG [CACACA_site9090]	11 ± 0.6
CTTTCATATGTTTTAACACACACGCATATATTATAG [CACACA_site7033]	10.2 ± 0.14
AAGAATGTTAACGTTGCACACAAAAAAAAAGTATAC [CACACA_site8763]	10.4 ± 0.23
ATATAAGTTATTTTATACAAAAAAAAAAAAAAAAAT [CACACA_negctrl_site1190]	9.825 ± 0.049
AAAAAAAAAAAAAATACACACACATATATATATATA [CACACA_site8698]	10.1 ± 0.41
TGTCTTTTTAAGTTTTGTACATAAATATATTTCAAA [XGTACX_site427]	11.1 ± 0.49

Source: the supplement of paper PMC11417369
